These results are taken from the BET-seq Pho4 binding data (Le et al. 2018).

Some of the results follow. Values were computed here from the reads of four pooled replicates and scatter widely.

This experiment concerns the target T1, Pho4 (S. cerevisiae) (UniProt P07270).
T1 sequence: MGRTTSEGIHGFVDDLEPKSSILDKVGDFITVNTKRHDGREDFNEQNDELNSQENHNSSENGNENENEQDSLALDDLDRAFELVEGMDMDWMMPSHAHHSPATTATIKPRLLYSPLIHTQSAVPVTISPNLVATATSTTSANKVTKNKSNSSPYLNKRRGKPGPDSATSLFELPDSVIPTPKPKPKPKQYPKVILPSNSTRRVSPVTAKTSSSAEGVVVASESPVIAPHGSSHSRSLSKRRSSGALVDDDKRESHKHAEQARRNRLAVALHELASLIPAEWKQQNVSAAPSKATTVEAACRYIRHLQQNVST
Kind of experiment: relative binding free energy (BET-seq); higher = weaker binding. Conditions: reference: library average.
For AAAGGCACGTGGAGGA, the “relative binding free energy” value was -0.08 kcal/mol. As for GGTGGCACGTGTATTT, the figure is 0.03 kcal/mol; as for GGTTGCACGTGTTTCA, -0.01 kcal/mol; as for CAGAGCACGTGGTGAA, 0.16 kcal/mol.

On to GTTATCACGTGGTTAA, for which the “relative binding free energy” value was determined as 0.21 kcal/mol. The value for GTAGACACGTGTATAG was 0.05 kcal/mol; that for GAGTTCACGTGGGGTG was 0.19 kcal/mol.

Turning to TTTTGCACGTGAGGAG, the “relative binding free energy” value worked out at 0.3 kcal/mol.

Regarding ATGTTCACGTGCGAGG, the “relative binding free energy” value stood at 0.16 kcal/mol. As for TTACGCACGTGAAGGT, the figure is 0.34 kcal/mol. As for CATTTCACGTGATTGG, the figure is 0.36 kcal/mol.

Turning to GGTTACACGTGGGGCA, the “relative binding free energy” value is -0.03 kcal/mol. As for CGGAGCACGTGGGGTA, the figure is -0.27 kcal/mol. The value for CAGTGCACGTGTTTGA was -0.03 kcal/mol; that for GTTTGCACGTGTCTTG was 0.04 kcal/mol; that for ATAGGCACGTGCTTGT was -0.16 kcal/mol. The value for ATTGGCACGTGGTGCC was -0.24 kcal/mol; that for AGGGACACGTGGACTG was 0.11 kcal/mol.

Take AATGGCACGTGCGTGT: the “relative binding free energy” value was -0.37 kcal/mol. Regarding GGCCGCACGTGTTGTG, the “relative binding free energy” value is -0.12 kcal/mol.

Consider AGGTGCACGTGGTAAC, for which the “relative binding free energy” value was determined as 0.09 kcal/mol. The value for GCTAGCACGTGGGATT was -0.01 kcal/mol. The value for CGGGGCACGTGTGTTC was 0.05 kcal/mol; that for AGAAACACGTGTAGGT was 0.08 kcal/mol; that for TTTTGCACGTGCGTGG was -0.13 kcal/mol. The value for TGTGTCACGTGGAGAA was 0.17 kcal/mol; that for GTAAGCACGTGGGGAG was -0.03 kcal/mol; that for TAGGGCACGTGGCGAT was -0.15 kcal/mol. TTAGACACGTGGCTGT: the “relative binding free energy” value worked out at 0.02 kcal/mol.

Take TGTAACACGTGGGGGT: the “relative binding free energy” value was -0.07 kcal/mol. The value for TTTTACACGTGAACTT was 0.18 kcal/mol; that for GGTGACACGTGAATGG was 0.23 kcal/mol.

AATATCACGTGAGGGT: the “relative binding free energy” value was 0.24 kcal/mol.

TTTGCCACGTGCGGGG: the “relative binding free energy” value was -0.2 kcal/mol. For the sequence AGGGCCACGTGCGTTG, the “relative binding free energy” value is -0.21 kcal/mol. Consider TTGGACACGTGTTACG, for which the “relative binding free energy” value is 0.04 kcal/mol. As for AGTGTCACGTGCGTGA, the figure is -0.06 kcal/mol; as for GATGTCACGTGGTCAT, 0.12 kcal/mol. Regarding ACATGCACGTGGAGTG, the “relative binding free energy” value was -0.06 kcal/mol. As for AAGTACACGTGGGCTG, the figure is -0.02 kcal/mol; as for GAGTTCACGTGGTAGG, 0.27 kcal/mol; as for AGGGTCACGTGATATT, 0.21 kcal/mol. The value for AGAGTCACGTGGGCGG was 0 kcal/mol; that for GTCGTCACGTGTATTG was 0.13 kcal/mol; that for ATATTCACGTGGGCGC was 0.18 kcal/mol. As for GGGTGCACGTGGTTTT, the figure is 0.01 kcal/mol. Consider GATGTCACGTGGGCGT, for which the “relative binding free energy” value stood at 0 kcal/mol.

Regarding GTAAGCACGTGGTGGT, the “relative binding free energy” value was -0.15 kcal/mol. The value for AGGGCCACGTGGATTG was -0.16 kcal/mol. As for TTGTTCACGTGCAGAG, the figure is 0.28 kcal/mol. On to CGTGCCACGTGGTGGT, for which the “relative binding free energy” value is -0.15 kcal/mol. The value for TGCAACACGTGGAGGT was -0.08 kcal/mol. GGAAACACGTGGGTGG: the “relative binding free energy” value was -0.18 kcal/mol. The value for AGGTTCACGTGGGTTG was 0.19 kcal/mol; that for ATCGGCACGTGTGGTA was 0.03 kcal/mol. As for GTTTCCACGTGGTCTG, the figure is 0.1 kcal/mol; as for GTAGTCACGTGAGAGT, 0.33 kcal/mol; as for GTCAGCACGTGCGTGT, -0.02 kcal/mol.

In the case of TTTTGCACGTGCGGTT, the “relative binding free energy” value was determined as 0.01 kcal/mol.

Turning to TAGGACACGTGTTTAA, the “relative binding free energy” value was -0.01 kcal/mol. The value for TAGTTCACGTGGTGCG was 0.21 kcal/mol. As for TTAAACACGTGTTGAT, the figure is 0 kcal/mol; as for GTTTGCACGTGAAGTC, 0.36 kcal/mol; as for GCCTGCACGTGTGTGT, 0.02 kcal/mol. The value for GGGATCACGTGGAGCT was 0.15 kcal/mol; that for AGTCTCACGTGTAGGG was 0.03 kcal/mol. On to TATGGCACGTGCGGCA, for which the “relative binding free energy” value was -0.14 kcal/mol. With TACGTCACGTGAGCGT, the “relative binding free energy” value is 0.14 kcal/mol. The value for AAGGTCACGTGGTTCA was 0.03 kcal/mol. The value for AAGGTCACGTGAAGTT was 0.3 kcal/mol. As for TTGTTCACGTGAATTG, the figure is 0.29 kcal/mol; as for TGTTGCACGTGTCGTC, 0.06 kcal/mol. AGTTCCACGTGTGCGG: the “relative binding free energy” value came out at 0.05 kcal/mol. As for CAAGGCACGTGTTTTT, the figure is -0.07 kcal/mol.

Take AAAGCCACGTGTTGTT: the “relative binding free energy” value was -0.09 kcal/mol. As for TTGTCCACGTGAGGGT, the figure is 0.12 kcal/mol; as for GGGGTCACGTGGGCGC, 0.02 kcal/mol; as for CTAATCACGTGTGTAT, 0.24 kcal/mol. As for GTTAGCACGTGGCGTC, the figure is -0.06 kcal/mol; as for AGTAACACGTGTTTTG, 0.08 kcal/mol. The value for TTATGCACGTGATTAT was 0.11 kcal/mol. As to GTGTGCACGTGTGGAC, the “relative binding free energy” value amounted to 0.12 kcal/mol. On to TGGCTCACGTGTGTTT, for which the “relative binding free energy” value worked out at 0.29 kcal/mol. As for TTGGGCACGTGTTGGT, the figure is 0.02 kcal/mol; as for TAGTGCACGTGGTACA, -0.16 kcal/mol. For the sequence ATCGGCACGTGAAGGG, the “relative binding free energy” value was 0.09 kcal/mol. As for TTGCACACGTGGAGTG, the figure is -0.11 kcal/mol. The value for TGCTTCACGTGTTATT was 0.24 kcal/mol. The value for GGGGTCACGTGGTCCA was 0.13 kcal/mol; that for GAGGGCACGTGGATAT was -0.06 kcal/mol; that for AGTTTCACGTGTAGGA was 0.36 kcal/mol. As to GCTTGCACGTGAGGTG, the “relative binding free energy” value is 0.21 kcal/mol. As for TATGGCACGTGCTTTG, the figure is -0.3 kcal/mol; as for GGGTTCACGTGTGTGC, 0.37 kcal/mol; as for ACGTGCACGTGCTTGT, -0.1 kcal/mol. As for CTTCTCACGTGGTTTG, the figure is 0.21 kcal/mol; as for AGTGGCACGTGTATTT, 0.08 kcal/mol. The value for TGGAGCACGTGGCTAT was -0.12 kcal/mol; that for TGGGGCACGTGTTATG was -0.07 kcal/mol.

With GTGCGCACGTGGACGG, the “relative binding free energy” value is -0.23 kcal/mol. The value for ATATGCACGTGAGTAA was 0.1 kcal/mol. As for TTAAGCACGTGTAAAT, the “relative binding free energy” value was -0.01 kcal/mol. As for TGGATCACGTGGTAGG, the figure is 0.01 kcal/mol. As for TTATTCACGTGGGGGG, the figure is 0.17 kcal/mol; as for TTAAGCACGTGGCGAG, -0.2 kcal/mol; as for GTAATCACGTGTGTCA, 0.2 kcal/mol. The value for GGATTCACGTGGGTCA was 0.12 kcal/mol; that for AGAGGCACGTGAAGAT was 0.15 kcal/mol; that for ACTTGCACGTGTGGAT was 0.06 kcal/mol.

As for TGCAACACGTGTGGTA, the “relative binding free energy” value was found to be 0.1 kcal/mol. Consider TTGGGCACGTGCAGAT, for which the “relative binding free energy” value was -0.03 kcal/mol.

As for TTCAGCACGTGGCGGG, the “relative binding free energy” value was -0.14 kcal/mol.

Turning to TGAGCCACGTGGTTGT, the “relative binding free energy” value is -0.17 kcal/mol. As to TTGGACACGTGGTCAT, the “relative binding free energy” value was -0.05 kcal/mol. The value for CTTGTCACGTGCTTGT was 0.01 kcal/mol.
